Assay results from ChEMBL document CHEMBL5506067, “Searching for Synthetic Opioid Rescue Agents: Identification of a Potent Opioid Agonist with Reduced Respiratory Depression” (J Med Chem, 2024).

How the values were obtained:
[1] = target: T1, Mu-type opioid receptor (Homo sapiens, UniProt P35372); experiment: Agonist activity at human MOR expressed in CHO-K1 cells assessed as decrease in cAMP level incubated for 30 mins in presence of forskolin by HitHunter cAMP analysis; assay type: functional, cell-based
T1 sequence (P35372 whole entry): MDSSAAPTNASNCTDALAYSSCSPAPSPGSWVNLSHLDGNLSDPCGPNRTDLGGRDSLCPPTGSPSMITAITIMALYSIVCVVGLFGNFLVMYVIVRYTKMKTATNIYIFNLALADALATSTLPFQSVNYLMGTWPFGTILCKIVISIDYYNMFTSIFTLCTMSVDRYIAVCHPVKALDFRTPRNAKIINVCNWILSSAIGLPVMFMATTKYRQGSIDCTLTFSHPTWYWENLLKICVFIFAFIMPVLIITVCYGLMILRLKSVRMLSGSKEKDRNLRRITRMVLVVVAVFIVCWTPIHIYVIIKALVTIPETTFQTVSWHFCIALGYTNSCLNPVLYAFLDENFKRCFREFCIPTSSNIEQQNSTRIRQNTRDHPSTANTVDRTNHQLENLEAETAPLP

[2] = target: T2, Delta-type opioid receptor (Homo sapiens, UniProt P41143); experiment: Agonist activity at human DOR expressed in CHO-K1 cells assessed as decrease in cAMP level incubated for 30 mins in presence of forskolin by HitHunter cAMP analysis; assay type: functional, cell-based
T2 sequence (P41143 whole entry): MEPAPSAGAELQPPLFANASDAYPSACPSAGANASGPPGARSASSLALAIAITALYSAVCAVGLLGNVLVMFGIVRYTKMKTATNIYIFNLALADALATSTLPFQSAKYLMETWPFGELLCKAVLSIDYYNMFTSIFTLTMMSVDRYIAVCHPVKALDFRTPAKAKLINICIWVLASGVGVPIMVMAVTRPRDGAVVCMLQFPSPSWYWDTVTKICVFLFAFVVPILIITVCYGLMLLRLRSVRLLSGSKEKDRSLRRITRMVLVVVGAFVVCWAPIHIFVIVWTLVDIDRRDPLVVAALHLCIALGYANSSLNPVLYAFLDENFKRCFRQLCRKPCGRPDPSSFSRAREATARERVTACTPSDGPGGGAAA

[3] = target: T3, Kappa-type opioid receptor (Homo sapiens, UniProt P41145); experiment: Agonist activity at human KOR expressed in CHO-K1 cells assessed as decrease in cAMP level incubated for 30 mins in presence of forskolin by HitHunter cAMP analysis; assay type: functional, cell-based
T3 sequence (P41145 whole entry): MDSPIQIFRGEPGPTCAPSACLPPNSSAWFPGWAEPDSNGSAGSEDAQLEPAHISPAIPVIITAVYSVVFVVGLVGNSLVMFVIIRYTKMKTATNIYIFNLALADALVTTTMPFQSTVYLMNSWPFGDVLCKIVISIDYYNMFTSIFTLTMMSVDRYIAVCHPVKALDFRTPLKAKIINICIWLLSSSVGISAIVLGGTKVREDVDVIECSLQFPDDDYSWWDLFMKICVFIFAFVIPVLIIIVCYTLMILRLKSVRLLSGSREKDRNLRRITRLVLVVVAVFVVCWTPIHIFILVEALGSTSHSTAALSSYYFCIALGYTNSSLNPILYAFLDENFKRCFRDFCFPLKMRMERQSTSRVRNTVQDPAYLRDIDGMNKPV

[4] = target: Nociceptin receptor (Homo sapiens, UniProt P41146); experiment: Agonist activity at human NOR expressed in CHO-K1 cells assessed as decrease in cAMP level incubated for 30 mins in presence of forskolin by HitHunter cAMP analysis; assay type: functional, cell-based
Sequence of UniProt P41146 (P41146 whole entry): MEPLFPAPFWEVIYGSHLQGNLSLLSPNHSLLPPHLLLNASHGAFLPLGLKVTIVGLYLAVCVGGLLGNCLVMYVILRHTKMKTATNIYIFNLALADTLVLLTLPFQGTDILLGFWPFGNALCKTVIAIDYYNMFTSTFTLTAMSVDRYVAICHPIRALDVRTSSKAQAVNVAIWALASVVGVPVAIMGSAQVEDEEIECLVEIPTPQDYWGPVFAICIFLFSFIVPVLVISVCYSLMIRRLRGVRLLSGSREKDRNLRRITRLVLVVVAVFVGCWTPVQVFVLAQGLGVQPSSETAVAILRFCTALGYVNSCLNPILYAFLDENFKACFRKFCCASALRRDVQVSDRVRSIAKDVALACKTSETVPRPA

[5] = target: T3, Kappa-type opioid receptor; experiment: Antagonist activity at human KOR expressed in CHO-K1 cells assessed as cAMP level preincubated for 15 mins followed by agonist addition and measured after 30 mins by HitHunter cAMP analysis; assay type: functional, cell-based
[6] = target: T1, Mu-type opioid receptor; experiment: Agonist activity at human MOR expressed in CHO-K1 cells assessed as decrease in beta-arrestin 2 recruitment incubated for 90 mins by HitHunter cAMP analysis; assay type: functional, cell-based
[7] = target: T2, Delta-type opioid receptor; experiment: Partial agonist activity at human DOR expressed in CHO-K1 cells assessed as decrease in cAMP level incubated for 30 mins in presence of forskolin by HitHunter cAMP analysis; assay type: functional, cell-based
[8] = Cmax in Sprague-Dawley rat brain at 10 mg/kg, ip measured upto 4 hrs by LC-MS/MS analysis; assay type: ADME, organism-based
[9] = Half-life in Sprague-Dawley rat brain at 10 mg/kg, ip measured upto 4 hrs by LC-MS/MS analysis; assay type: ADME, organism-based
[10] = AUC in Sprague-Dawley rat brain at 10 mg/kg, ip measured upto 4 hrs by LC-MS/MS analysis; assay type: ADME, organism-based; settings: in vivo
[11] = Tmax in Sprague-Dawley rat brain at 10 mg/kg, ip measured upto 4 hrs by LC-MS/MS analysis; assay type: ADME, organism-based; settings: in vivo
[12] = Apparent permeability coefficient in Sprague-Dawley rat brain at 10 mg/kg, ip measured upto 4 hrs by LC-MS/MS analysis; assay type: ADME, organism-based
[13] = target: T1, Mu-type opioid receptor; experiment: Agonist activity at MOR (unknown origin); assay type: functional
[14] = target: T2, Delta-type opioid receptor; experiment: Agonist activity at DOR (unknown origin); assay type: functional
[15] = target: T3, Kappa-type opioid receptor; experiment: Antagonist activity at KOR (unknown origin); assay type: functional
[16] = target: T4, Alpha-1A adrenergic receptor (Homo sapiens, UniProt P35348); experiment: Inhibition of alpha1A adrenoreceptor (unknown origin)
T4 sequence (P35348 whole entry): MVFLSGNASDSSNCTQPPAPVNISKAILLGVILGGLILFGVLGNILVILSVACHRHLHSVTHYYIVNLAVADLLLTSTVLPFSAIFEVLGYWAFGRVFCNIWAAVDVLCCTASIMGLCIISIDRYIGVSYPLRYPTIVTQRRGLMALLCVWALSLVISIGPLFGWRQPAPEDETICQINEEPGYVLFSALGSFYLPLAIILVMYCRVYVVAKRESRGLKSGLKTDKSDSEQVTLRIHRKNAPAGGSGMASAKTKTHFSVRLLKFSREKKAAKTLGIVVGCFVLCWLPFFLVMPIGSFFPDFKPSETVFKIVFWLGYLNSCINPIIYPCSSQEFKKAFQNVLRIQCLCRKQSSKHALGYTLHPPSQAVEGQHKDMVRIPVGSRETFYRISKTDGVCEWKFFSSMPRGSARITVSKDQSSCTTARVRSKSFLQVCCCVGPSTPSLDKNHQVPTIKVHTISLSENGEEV

[17] = target: T5, Alpha-2A adrenergic receptor (Homo sapiens, UniProt P08913); experiment: Inhibition of alpha2A adrenoreceptor (unknown origin)
T5 sequence (P08913 whole entry): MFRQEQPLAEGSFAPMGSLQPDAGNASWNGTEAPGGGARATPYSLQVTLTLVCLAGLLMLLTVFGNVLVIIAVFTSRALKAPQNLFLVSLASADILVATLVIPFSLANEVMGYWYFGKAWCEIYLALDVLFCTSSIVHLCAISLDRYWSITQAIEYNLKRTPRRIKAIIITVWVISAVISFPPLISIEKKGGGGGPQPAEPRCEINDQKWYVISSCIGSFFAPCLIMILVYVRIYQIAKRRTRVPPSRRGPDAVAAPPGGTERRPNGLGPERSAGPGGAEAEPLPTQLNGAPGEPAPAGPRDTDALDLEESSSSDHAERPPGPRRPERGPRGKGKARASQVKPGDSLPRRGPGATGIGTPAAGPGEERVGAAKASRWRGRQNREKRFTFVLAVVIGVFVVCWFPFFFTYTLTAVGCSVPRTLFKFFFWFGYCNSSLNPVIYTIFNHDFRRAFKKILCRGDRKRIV

[18] = target: 5-hydroxytryptamine receptor 2A (Homo sapiens, UniProt P28223); experiment: Inhibition of 5HT-2A (unknown origin)
[19] = target: T6, Androgen receptor (Homo sapiens, UniProt P10275); experiment: Inhibition of androgen nuclear hormone receptor (unknown origin)
T6 sequence (P10275 whole entry): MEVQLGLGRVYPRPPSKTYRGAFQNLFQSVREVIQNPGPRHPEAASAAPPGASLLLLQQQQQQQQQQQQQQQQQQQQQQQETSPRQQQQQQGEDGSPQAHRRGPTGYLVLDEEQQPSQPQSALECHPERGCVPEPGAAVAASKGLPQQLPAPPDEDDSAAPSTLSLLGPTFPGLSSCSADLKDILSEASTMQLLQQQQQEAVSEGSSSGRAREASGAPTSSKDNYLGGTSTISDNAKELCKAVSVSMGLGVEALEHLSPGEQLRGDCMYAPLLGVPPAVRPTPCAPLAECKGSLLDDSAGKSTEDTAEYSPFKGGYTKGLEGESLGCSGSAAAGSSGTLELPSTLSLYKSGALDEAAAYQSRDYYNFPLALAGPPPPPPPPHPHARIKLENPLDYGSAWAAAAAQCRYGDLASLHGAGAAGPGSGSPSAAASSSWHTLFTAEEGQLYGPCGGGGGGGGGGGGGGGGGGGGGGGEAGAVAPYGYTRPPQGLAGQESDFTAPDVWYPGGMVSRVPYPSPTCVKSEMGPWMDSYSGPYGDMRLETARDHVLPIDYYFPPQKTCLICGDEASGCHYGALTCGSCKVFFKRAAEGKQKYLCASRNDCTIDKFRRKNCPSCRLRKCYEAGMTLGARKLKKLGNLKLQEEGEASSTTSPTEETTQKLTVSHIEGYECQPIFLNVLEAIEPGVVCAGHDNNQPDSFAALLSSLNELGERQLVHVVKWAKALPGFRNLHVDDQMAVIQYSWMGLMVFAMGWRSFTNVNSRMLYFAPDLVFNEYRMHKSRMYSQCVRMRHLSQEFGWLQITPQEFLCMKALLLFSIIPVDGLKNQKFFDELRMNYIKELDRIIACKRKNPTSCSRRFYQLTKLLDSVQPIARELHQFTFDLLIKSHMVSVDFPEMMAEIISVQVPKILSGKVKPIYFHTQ

[20] = target: Prostaglandin G/H synthase 1 (Homo sapiens, UniProt P23219); experiment: Inhibition of COX-1 (unknown origin)
[21] = target: T7, Prostaglandin G/H synthase 2 (Homo sapiens, UniProt P35354); experiment: Inhibition of COX-2 (unknown origin)
T7 sequence (P35354 whole entry): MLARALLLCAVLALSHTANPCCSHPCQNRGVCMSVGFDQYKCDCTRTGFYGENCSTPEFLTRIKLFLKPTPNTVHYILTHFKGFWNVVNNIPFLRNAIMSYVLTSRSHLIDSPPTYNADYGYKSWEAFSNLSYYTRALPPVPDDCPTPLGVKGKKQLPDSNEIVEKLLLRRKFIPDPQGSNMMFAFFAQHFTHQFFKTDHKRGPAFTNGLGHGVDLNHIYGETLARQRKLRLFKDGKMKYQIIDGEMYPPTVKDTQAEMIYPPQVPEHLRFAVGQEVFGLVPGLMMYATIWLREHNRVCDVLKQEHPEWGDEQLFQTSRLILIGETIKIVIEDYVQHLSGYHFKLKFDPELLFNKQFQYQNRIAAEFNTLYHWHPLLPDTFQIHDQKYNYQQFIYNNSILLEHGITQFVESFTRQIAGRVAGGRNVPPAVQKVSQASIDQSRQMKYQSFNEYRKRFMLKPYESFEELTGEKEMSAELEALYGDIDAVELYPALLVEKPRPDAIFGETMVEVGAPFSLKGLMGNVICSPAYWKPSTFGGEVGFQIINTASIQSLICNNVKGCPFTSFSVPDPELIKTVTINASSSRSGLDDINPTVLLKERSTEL

[22] = target: Sodium-dependent dopamine transporter (Homo sapiens, UniProt Q01959); experiment: Inhibition of dopamine transporter (unknown origin)
[23] = target: Sodium-dependent noradrenaline transporter (Homo sapiens, UniProt P23975); experiment: Inhibition of norepinephrine transporter (unknown origin)
[24] = target: Voltage-gated inwardly rectifying potassium channel KCNH2 (Homo sapiens, UniProt Q12809); experiment: Inhibition of hERG; assay type: toxicity
Sequence of UniProt Q12809 (Q12809 whole entry): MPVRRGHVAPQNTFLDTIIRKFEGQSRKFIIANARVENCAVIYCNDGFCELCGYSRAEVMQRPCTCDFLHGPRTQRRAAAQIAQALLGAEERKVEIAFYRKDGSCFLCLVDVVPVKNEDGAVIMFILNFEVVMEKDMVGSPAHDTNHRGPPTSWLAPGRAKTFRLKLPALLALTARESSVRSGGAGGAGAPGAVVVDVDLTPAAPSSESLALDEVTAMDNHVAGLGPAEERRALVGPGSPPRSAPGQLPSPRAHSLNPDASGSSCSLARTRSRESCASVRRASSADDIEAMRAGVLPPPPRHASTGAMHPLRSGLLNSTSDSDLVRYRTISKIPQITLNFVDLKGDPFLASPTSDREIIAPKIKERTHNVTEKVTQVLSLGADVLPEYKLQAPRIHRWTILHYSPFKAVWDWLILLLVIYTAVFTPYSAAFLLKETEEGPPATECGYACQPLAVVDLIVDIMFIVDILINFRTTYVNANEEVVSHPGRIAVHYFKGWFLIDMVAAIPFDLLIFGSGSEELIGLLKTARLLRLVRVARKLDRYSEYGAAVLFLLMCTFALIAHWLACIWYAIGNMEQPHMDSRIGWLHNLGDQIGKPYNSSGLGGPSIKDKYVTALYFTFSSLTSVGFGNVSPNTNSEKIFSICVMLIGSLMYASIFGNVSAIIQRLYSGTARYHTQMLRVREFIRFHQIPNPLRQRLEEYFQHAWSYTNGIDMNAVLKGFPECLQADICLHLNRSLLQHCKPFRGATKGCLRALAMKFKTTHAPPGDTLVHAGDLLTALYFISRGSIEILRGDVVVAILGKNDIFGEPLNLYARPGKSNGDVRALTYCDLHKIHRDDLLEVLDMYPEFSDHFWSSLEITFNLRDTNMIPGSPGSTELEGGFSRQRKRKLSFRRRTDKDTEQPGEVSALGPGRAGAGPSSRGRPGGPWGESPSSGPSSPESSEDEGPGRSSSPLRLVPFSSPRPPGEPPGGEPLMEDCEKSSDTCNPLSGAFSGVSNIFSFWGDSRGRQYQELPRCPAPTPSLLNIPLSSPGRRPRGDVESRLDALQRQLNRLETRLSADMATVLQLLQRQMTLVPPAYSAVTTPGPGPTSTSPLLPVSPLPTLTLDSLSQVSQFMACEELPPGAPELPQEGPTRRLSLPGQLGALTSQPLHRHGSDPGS

[25] = target: hERG (KCNH2) (Homo sapiens, UniProt Q12809); experiment: Inhibition of hERG relative to control; assay type: toxicity; settings: read-out: Imax
[26] = target: Sodium channel protein type 5 subunit alpha (Homo sapiens, UniProt Q14524); experiment: Inhibition of Nav1.5 sodium ion channel (unknown origin)
Sequence of UniProt Q14524 (Q14524 whole entry): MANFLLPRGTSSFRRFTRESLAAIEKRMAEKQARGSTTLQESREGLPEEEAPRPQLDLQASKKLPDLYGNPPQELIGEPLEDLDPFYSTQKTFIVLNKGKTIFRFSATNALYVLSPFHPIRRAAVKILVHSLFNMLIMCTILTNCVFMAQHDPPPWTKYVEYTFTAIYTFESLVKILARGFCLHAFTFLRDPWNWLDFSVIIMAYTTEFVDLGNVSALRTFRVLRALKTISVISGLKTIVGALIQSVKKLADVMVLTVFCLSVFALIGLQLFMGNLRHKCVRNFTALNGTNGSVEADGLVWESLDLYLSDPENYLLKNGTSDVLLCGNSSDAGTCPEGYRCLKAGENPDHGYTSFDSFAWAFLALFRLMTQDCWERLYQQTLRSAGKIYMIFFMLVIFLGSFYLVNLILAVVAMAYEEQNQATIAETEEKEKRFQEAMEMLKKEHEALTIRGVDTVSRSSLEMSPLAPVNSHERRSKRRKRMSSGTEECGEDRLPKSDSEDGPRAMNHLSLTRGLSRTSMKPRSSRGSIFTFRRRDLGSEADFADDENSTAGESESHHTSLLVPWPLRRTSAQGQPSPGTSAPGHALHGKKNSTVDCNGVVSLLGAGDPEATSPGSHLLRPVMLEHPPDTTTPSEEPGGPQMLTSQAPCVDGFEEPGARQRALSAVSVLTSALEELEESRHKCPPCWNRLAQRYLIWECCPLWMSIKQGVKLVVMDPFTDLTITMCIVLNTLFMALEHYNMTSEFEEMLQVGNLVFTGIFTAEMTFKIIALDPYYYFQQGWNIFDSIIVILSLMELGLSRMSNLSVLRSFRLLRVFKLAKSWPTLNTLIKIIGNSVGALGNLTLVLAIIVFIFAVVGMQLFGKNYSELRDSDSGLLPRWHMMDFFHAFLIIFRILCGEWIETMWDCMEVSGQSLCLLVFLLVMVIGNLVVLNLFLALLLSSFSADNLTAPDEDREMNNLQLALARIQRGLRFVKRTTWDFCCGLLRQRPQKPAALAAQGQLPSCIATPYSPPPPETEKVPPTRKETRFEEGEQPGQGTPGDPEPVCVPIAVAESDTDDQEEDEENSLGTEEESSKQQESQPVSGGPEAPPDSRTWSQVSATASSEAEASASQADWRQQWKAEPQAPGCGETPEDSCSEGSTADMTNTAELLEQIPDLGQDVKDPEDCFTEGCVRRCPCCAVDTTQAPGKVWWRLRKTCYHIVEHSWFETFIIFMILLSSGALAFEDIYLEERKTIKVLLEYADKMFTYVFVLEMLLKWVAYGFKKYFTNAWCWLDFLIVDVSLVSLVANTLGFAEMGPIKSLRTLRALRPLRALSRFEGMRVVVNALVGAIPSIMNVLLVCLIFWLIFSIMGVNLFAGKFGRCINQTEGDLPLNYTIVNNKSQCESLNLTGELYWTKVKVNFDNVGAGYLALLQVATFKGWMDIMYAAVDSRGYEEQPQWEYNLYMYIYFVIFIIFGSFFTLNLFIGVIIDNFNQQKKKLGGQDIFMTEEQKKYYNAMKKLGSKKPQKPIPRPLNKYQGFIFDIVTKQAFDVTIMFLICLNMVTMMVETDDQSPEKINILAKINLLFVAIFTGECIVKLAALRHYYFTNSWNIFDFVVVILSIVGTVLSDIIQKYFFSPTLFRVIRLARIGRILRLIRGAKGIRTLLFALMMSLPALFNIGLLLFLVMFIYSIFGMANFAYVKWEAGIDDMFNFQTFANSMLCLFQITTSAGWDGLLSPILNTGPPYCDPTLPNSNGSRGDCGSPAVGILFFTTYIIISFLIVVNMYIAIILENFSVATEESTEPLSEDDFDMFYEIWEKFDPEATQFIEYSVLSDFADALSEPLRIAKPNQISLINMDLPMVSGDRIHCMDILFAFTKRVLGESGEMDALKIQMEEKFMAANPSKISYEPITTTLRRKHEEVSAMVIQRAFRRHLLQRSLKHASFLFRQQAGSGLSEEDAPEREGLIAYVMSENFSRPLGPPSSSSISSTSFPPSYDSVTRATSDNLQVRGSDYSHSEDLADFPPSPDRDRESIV

[27] = target: Nav1.5 sodium channel (SCN5A) (Homo sapiens, UniProt Q14524); experiment: Inhibition of Nav1.5 sodium ion channel (unknown origin) relative to control; settings: read-out: Imax
[28] = Toxicity in B6129F1 mouse assessed as analgesic tolerance at 2.5 mg/kg, ip administered twice daily on day 2 to 7 and measured on day 8; assay type: organism-based; settings: in vivo, 168 h, time 7 day
[29] = test system: Mus musculus; experiment: Antinociceptive activity in ip dosed B6129F1 mouse on day 1; assay type: functional; settings: B6129F1, 24 h
[30] = test system: Mus musculus; experiment: Antinociceptive activity in ip dosed B6129F1 mouse on day 8; assay type: functional; settings: B6129F1, 192 h
[31] = Toxicity in ip dosed B6129F1 mouse assessed as precipitated withdrawal symptoms by measuring increase in jumping compound administered for 8 days followed by 10 mg/kg NTX addition and measured for 15 mins; assay type: organism-based; settings: in vivo, 192.25 h, time 11535 min
[32] = Toxicity in Sprague-Dawley rat assessed as loss of spontaneous motor activity at 0.03 to 10 mg/kg, sc measured after 15 mins; assay type: organism-based; settings: in vivo, 0.25 h, dose 0.03-10 mg/kg
[33] = Toxicity in Sprague-Dawley rat assessed as catelepsy by measuring righting reflex at 10 mg/kg, sc measured after 15 mins; assay type: organism-based; settings: in vivo, 0.25 h
[34] = Toxicity in Sprague-Dawley rat assessed as respiratory depression by measuring reduction in minute ventilation at 0.03 to 10 mg/kg, sc measured after 30 mins; assay type: organism-based; parameters: scale not given: the % may be the effect or the level left; settings: in vivo, 0.5 h, dose 0.03-10 mg/kg

Oc1cccc(N2CCN(CCCc3ccccc3)CC2)c1
EC50 [1]: > 10000 nM

C[C@H]1CN(CCCc2ccccc2)CCN1c1cccc(O)c1
EC50 [1]: > 10000 nM

C[C@@H](Cc1ccsc1)NC(=O)NC[C@H](Cc1ccc(O)cc1)N(C)C
IC50 [2]: 108 nM | EC50 [3]: > 10000 nM | EC50 [4]: > 10000 nM | IC50 [5]: 270 nM

COc1ccccc1N1[C@@H]2CC[C@H]1CN(CCCc1ccccc1)C2
EC50 [1]: 256 nM

CN1C[C@H]2CC[C@@H](C1)N2c1cccc(O)c1
EC50 [1]: 122 nM | EC50 [6]: > 50000 nM

Oc1cccc(N2[C@@H]3CC[C@H]2CN(Cc2ccccc2)C3)c1
EC50 [1]: 41.3 nM | EC50 [6]: > 50000 nM

Oc1cccc(N2[C@@H]3CC[C@H]2CN(CCCc2ccccc2)C3)c1
EC50 [1]: 0.39 nM | EC50 [6]: > 50000 nM | EC50 [7]: 2.18 nM | EC50 [3]: > 10000 nM | EC50 [4]: > 10000 nM | IC50 [5]: 357 nM | Cmax [8]: 3300 ng/g | half-life [9]: 1.35 h | AUC [10]: 5929 ng·h/g | Tmax [11]: 0.25 h | Kp at 4 h [12]: 6.6 | EC50 [13]: 1.68 nM | EC50 [14]: 4.49 nM | IC50 [15]: 2090 nM | IC50 [16]: 8700 nM | IC50 [17]: 5450 nM | IC50 [18]: 1130 nM | IC50 [19]: 8010 nM | IC50 [20]: 480 nM | IC50 [21]: 1060 nM | IC50 [22]: 500 nM | IC50 [23]: 5600 nM | IC50 [24]: 4600 nM | Emax [25]: 68.3% | IC50 [26]: 2300 nM | Emax [27]: 88.3% | Activity [28]: Toxic | ED50 [29]: 0.87 mg/kg | ED50 [30]: 3.22 mg/kg | Activity [31]: Toxic | Activity [32]: Non-Toxic | Activity [33]: Non-Toxic | Activity [34]: ~ 45%

c1ccc(CCCN2C[C@H]3CC[C@@H](C2)N3c2ccccc2)cc1
EC50 [1]: 124 nM | EC50 [6]: > 50000 nM

Oc1cccc(N2[C@@H]3CC[C@H]2CN(CCc2ccccc2)C3)c1
IC50 [2]: 23.5 nM | EC50 [4]: > 10000 nM
